# In the supplement of paper PMC4166925:
# ± gives the standard deviation of the averaged measurements. Over roughly 33,000 sequences, “E-score (dimensionless, -0.5 to 0.5)” has its median near -0.049; the highest 2% begin near 0.37. This is one part of the list.
# Tested on: T1, PmTbr T-box DNA-binding domain (GST fusion)
# T1 sequence: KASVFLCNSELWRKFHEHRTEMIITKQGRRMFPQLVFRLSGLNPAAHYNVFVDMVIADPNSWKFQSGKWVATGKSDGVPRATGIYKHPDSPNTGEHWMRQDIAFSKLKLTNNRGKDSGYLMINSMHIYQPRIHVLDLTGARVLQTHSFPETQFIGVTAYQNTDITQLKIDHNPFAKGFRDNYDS
# Assay: PBM E-score of 8-mer (E-score (dimensionless, -0.5 to 0.5)); Tbr is Tbrain of the sea star Patiria miniata (Pm) or the sea urchin Strongylocentrotus purpuratus (Sp); higher = stronger binding preference; most listed sequences are background and not binding sites
# Details: the construct has about 5 more residues each side
# How it was run: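 Primer extension turned Universal Agilent oligonucleotide arrays double-stranded. They were incubated with 200 nM protein in PBS (pH 7.5); the protein was a GST-fused Tbr T-box DNA-binding domain expressed in BL21 E. coli at 20 °C and purified on glutathione. Every ungapped 8-mer was scored from the scanned, quantified probe intensities, and the Universal PBM Analysis Suite gave each an enrichment E-score averaged over duplicate arrays.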
row,Sequence,PBM E-score of 8-mer
1,CTACAGTA,-0.0388 ± 0.061
2,CTGCAATC,-0.0811 ± 0.026
3,TAAGATGA,-0.119 ± 0.045
4,ATCCGTAG,-0.159 ± 0.035
5,GACAATAC,-0.0362 ± 0.021
6,ATGGAGAA,-0.273 ± 0.038
7,AGTCCGAC,-0.194 ± 0.097
8,AGAACGGA,-0.135 ± 0.0092
9,GGAAATAC,-0.0419 ± 0.014
10,AGCGTTAC,0.0407 ± 0.036
11,CCCCAGAC,-0.109 ± 0.082
12,ACGCAACG,-0.0816 ± 0.088
13,ATATAGAC,-0.171 ± 0.026
14,CACCGTAA,0.2 ± 0.045
15,ACTCAAAA,-0.0256 ± 0.025
16,CACCTCGA,0.4483 ± 0.002
17,AGTCGTTC,0.0412 ± 0.0045
18,AGATGGAT,-0.121 ± 0.036
19,ATTAGAGG,-0.245 ± 0.012
20,CCCAGGTC,-0.157 ± 0.069
21,ATTCTTAC,-0.164 ± 0.032
22,CCTGCGCC,-0.185 ± 0.067

row,Sequence,PBM E-score of 8-mer
1,AAAACTCG,-0.0772 ± 0.064
2,TCACTGAA,-0.00506 ± 0.034
3,CATCTCTC,0.127 ± 0.025
4,AAAACTGA,-0.181 ± 0.049
5,GATGGCAC,0.226 ± 0.012
6,AGTCTGAC,0.00698 ± 0.016
7,GGTGGGTA,-0.147 ± 0.0071
8,CGCGACCA,0.158 ± 0.0094
9,CACGATTA,0.0478 ± 0.0013
10,ATCCTTCG,-0.104 ± 0.00045
11,CGTAGCGA,-0.0568 ± 0.064
12,ACTCGAAT,-0.111 ± 0.012
13,TCAGCGAA,0.0664 ± 0.033
14,CAGCTTCA,0.252 ± 0.034
15,AGATTATA,-0.0156 ± 0.077
16,AAACACGA,0.0913 ± 0.081
17,ATTCTCCG,0.0879 ± 0.092
18,CACACGAG,0.0954 ± 0.024
19,ATTTTGTA,-0.0288 ± 0.12
20,CCGCAAGG,-0.0428 ± 0.021
21,ATTGCGGA,-0.0212 ± 0.064
22,GAGTCCAC,-0.0836 ± 0.065

row,Sequence,PBM E-score of 8-mer
1,CTAACGCA,0.203 ± 0.054
2,AAGACGCT,-0.0844 ± 0.043
3,TATGAACA,-0.116 ± 0.05
4,GCGAGGCA,0.197 ± 0.02
5,AAATGGAA,-0.157 ± 0.022
6,ATTTAATA,0.0973 ± 0.0012
7,AAGAAGCA,-0.224 ± 0.022
8,GCGCTACC,0.345 ± 0.021
9,TTATCAAA,-0.0375 ± 0.11
10,CGAGAAAA,0.233 ± 0.021
11,CTAATCGC,0.097 ± 0.035
12,AGTAATAT,-0.0505 ± 0.075
13,CTCAGACC,-0.271 ± 0.024
14,GTGAGGTA,0.215 ± 0.027
15,CAGCCACC,0.096 ± 0.0017
16,CAGGGCTC,-0.316 ± 0.076
17,CACAAAAG,0.0694 ± 0.01
18,CACCGTGC,0.156 ± 0.05
19,CCCGGACC,-0.184 ± 0.022
20,CCGCGGAA,-0.0331 ± 0.048
21,CTACGAAA,0.00341 ± 0.023
22,CATAAAGA,-0.119 ± 0.027

row,Sequence,PBM E-score of 8-mer
1,AGCACCAC,0.115 ± 0.054
2,AATACCGT,-0.0344 ± 0.0088
3,CTCTGACA,0.241 ± 0.028
4,GCCGTGCC,0.0438 ± 0.036
5,TCAGTACA,-0.111 ± 0.0065
6,ATGTTCCC,-0.209 ± 0.046
7,AACTGCAA,-0.106 ± 0.07
8,CCCCGTCA,0.255 ± 0.029
9,ACCCCTAG,-0.0734 ± 0.065
10,ACGTATAA,-0.122 ± 0.059
11,ATTCCAGC,-0.23 ± 0.042
12,CGGATGCA,-0.161 ± 0.014
13,GGTGAGAC,0.3824 ± 0.0024
14,GAATTTGC,0.185 ± 0.0034
15,AGTCTTCC,-0.221 ± 0.06
16,AGGAAAGC,-0.168 ± 0.0094
17,ACTAAAGT,-0.046 ± 0.036
18,CGACAATC,0.198 ± 0.022
19,CTTGAAGC,-0.131 ± 0.033
20,GAACTCAC,0.0408 ± 0.015
